Experimental findings from PMC8315052 are described below.

Sequences of proteins named here, by UniProt entry; tags and fusion partners are left off. A change or cut given only in a name is not applied to a line headed by its entry. Residues count along the entry.
UniProt P06733: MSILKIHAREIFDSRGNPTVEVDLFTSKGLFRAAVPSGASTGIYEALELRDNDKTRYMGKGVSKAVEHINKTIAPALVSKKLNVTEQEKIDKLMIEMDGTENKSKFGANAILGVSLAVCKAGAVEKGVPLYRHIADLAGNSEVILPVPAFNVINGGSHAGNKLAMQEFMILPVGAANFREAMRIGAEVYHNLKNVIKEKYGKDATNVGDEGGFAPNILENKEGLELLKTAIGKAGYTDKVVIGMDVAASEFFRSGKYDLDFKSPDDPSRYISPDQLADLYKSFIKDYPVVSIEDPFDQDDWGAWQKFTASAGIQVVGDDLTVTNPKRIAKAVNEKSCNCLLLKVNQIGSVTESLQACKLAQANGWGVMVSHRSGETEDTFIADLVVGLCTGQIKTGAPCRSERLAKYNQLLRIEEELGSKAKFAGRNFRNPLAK
Myc-ENO1-1-138: residues 1-138 of P06733
Myc-ENO1-140-434: residues 140-434 of P06733
UniProt P31749: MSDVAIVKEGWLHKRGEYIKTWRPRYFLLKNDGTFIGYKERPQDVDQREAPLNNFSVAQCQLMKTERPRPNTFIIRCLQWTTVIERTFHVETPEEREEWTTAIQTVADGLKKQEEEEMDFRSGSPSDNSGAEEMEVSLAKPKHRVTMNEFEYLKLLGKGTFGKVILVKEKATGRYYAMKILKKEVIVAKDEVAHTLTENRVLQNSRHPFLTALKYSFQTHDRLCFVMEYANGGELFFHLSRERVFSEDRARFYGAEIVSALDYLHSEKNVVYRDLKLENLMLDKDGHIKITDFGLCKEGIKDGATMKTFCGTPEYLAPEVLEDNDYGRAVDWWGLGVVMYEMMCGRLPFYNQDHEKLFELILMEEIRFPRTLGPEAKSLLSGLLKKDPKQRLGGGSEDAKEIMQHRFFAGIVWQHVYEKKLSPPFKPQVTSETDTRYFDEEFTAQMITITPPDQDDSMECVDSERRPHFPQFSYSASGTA
UniProt Q969H0: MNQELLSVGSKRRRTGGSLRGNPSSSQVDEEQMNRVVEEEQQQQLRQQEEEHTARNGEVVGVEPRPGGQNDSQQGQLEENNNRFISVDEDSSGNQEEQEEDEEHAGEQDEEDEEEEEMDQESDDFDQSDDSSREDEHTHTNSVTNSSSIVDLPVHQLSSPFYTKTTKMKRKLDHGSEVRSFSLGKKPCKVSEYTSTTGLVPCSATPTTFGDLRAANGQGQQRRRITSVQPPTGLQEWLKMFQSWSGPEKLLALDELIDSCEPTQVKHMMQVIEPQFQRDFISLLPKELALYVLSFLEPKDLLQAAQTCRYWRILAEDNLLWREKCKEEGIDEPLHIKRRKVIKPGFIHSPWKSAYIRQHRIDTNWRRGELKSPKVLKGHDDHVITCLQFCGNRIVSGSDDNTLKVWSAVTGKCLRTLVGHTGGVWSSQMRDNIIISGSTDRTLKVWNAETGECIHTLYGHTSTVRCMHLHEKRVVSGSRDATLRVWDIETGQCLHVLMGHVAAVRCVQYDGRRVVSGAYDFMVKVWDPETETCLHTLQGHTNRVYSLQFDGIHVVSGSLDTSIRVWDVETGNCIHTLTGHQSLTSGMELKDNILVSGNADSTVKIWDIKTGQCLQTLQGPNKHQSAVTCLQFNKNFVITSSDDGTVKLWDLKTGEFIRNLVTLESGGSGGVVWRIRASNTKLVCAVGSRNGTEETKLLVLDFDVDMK

No constants are given. Whether binding was seen depends on the method and setting. Binding seen in cells or lysates may run through a third protein. Some results given as binding are weak or reduced against the parent protein; the word gives no strength. For some of these results: Sequences can lack the tags named with a protein.

Assay [1] deals with T1, coiled-coil domain containing 65 (CCDC65), endogenous (human (endogenous in AGS / gastric cancer cells)) (UniProt Q8IXS2).
T1 sequence: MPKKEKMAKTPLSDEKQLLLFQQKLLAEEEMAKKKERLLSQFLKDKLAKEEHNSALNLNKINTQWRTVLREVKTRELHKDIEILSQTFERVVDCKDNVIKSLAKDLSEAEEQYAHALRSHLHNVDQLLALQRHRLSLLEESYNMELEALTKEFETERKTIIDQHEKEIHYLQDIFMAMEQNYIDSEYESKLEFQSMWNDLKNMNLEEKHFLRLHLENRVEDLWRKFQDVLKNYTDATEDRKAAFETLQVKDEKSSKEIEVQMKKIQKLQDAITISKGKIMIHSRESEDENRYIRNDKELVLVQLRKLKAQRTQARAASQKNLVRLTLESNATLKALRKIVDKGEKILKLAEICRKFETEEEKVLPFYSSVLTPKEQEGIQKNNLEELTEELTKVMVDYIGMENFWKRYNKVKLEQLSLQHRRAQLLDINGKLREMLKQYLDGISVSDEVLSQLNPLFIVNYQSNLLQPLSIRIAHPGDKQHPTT
As to the kind of experiment: co-IP; endogenous proteins, cell lysate (GC cells); 1 mg protein with 5 ug primary antibody or IgG overnight at 4 °C; also with CCDC65 overexpression (Figure 6I) or si-CCDC65 (Figure 7E).

For assay [2], the target named is alpha-Enolase (ENO1), endogenous (human (endogenous in AGS / gastric cancer cells)) (UniProt P06733). The description is as above.
The target of assay [3] is T2, GST-CCDC65 (human) (UniProt Q8IXS2).
T2 sequence: T1 sequence
In words: pull-down; GST pull-down: total protein with His-ENO1 or His-FBXW7 incubated with GST-CCDC65 or GST-control at 4 °C overnight, then glutathione-sepharose beads 2 h; Western blot; only the target purified.

The target of assay [4] is Myc-ENO1, full length (human) (UniProt P06733). In words: co-IP; exogenous: tagged proteins transfected (HEK293T in Figures 5E, 5F, 7D); IP with anti-Flag or anti-Myc, Western blot.
For assay [5], the target named is T3, wild type (WT) CCDC65, exogenous full length (human) (UniProt Q8IXS2).
T3 sequence: T1 sequence
Described as above.

Assay [6] has as its target T4, Flag-CCDC65-130-484 (human) (UniProt Q8IXS2).
T4 sequence: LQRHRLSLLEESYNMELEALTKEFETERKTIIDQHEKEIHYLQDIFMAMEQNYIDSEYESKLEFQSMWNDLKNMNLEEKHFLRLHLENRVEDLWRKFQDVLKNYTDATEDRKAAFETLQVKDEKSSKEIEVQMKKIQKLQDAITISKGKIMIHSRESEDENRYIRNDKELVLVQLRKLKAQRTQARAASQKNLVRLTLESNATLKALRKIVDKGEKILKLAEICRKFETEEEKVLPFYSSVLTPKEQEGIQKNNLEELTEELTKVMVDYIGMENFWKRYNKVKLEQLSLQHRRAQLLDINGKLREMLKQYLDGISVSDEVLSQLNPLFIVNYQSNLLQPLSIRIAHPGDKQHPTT
The assay is described as above.

Assay [7] concerns the target T5, Flag-CCDC65-1-130 (human) (UniProt Q8IXS2).
T5 sequence: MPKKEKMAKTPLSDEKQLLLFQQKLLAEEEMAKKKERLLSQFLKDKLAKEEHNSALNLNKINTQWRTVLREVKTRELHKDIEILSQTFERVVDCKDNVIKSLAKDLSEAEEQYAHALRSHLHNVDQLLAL
The assay is described as above.

Assay [8] has as its target Myc-ENO1-1-138 (human) (UniProt P06733). The assay is described as above.
For assay [9], the target named is Myc-ENO1-140-434 (human) (UniProt P06733). The description is as above.

As to “RAC-Alpha Serine/Threonine-Protein Kinase (AKT1), endogenous (from UniProt P31749 1-480)”, the values for the binding result in assay [1] and in assay [2] were “no binding” and “binds”, respectively.
The matching figures for “F-Box and WD Repeat Domain Containing 7 (FBXW7), endogenous (from UniProt Q969H0 1-707)”: “binds” and “binds”.
With His-FBXW7 (from UniProt Q969H0 1-707), in [3], the binding result is listed as “binds”.
His-ENO1 (from UniProt P06733 1-434): the binding result in [3] was “binds”.
In the case of “alpha-Enolase (ENO1), endogenous (from UniProt P06733 1-434)”, the binding entry in assay [1] is given as “binds”.
Consider “full-length HA-AKT1 (from UniProt P31749 1-480)”, for which the binding result in assay [4] is “binds”.
Regarding “Myc-ENO1, full length (from UniProt P06733 1-434)”, the binding result in assay [5] was “binds”; in assay [6], “binds”; in assay [7], “no binding”.

B1: wild type (WT) CCDC65, exogenous full length (protein, UniProt Q8IXS2 1-484)
chain: T1 sequence
With B1, the binding entry is recorded as “no binding” in [8] and “binds” in assay [9].
